# Measurements taken from the supplement of paper PMC12645437, “Orthogonal IMiD-Degron Pairs Induce Selective Protein Degradation in Cells” (ACS Chemical Biology, 2025).
# Some of the results follow.
# Target: no compound (DMSO)
# Assay: log2 fold change of degron read counts, EGFP-low vs EGFP+ sorted cells; higher = lower degron-EGFP level without compound (poor expression or instability)
# Details: compound: DMSO control; 18 h
# 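Further: jurkat cells carrying a lentiviral library of mutant zinc finger degrons fused to EGFP plus mCherry, mCherry+ cells FACS sorted, degron abundance counted by next-generation sequencing.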
row,Sequence,log2 fold change of degron read counts
1,FYCNVCGATFTQKGNLLRHIKL,-1.05
2,FDCNVCGAKFTQKGNLLRHIKL,-1.21
3,LMCNQCGFSCTQKGNLLRHIKL,-0.04
4,FQCEICGAYFTQKGNLLRHIKL,-1.09
5,FFCSVCGHSFTQKGNLLRHIKL,0.404
6,FYCPQCGAAFTQKGNLLRHIKL,-0.211
7,FKCEICGAYFTQKGNLLRHIKL,-2.4
8,FQCNQCGRQFTQKGNLLRHIKL,-1.6
9,LVCPICGFWCTQKGNLLRHIKL,1.64
10,LTCNQCGFPCTQKGNLLRHIKL,0.0872
11,FGCEQCGADFTQKGNLLRHIKL,-2.61
12,FRCNQCGRNFTQKGNLLRHIKL,-0.165
13,FQCEICGRTFTQKGNLLRHIKL,-2.44
14,FKCPICGRIFTQKGNLLRHIKL,-0.822
15,FHCEICGAVFTQKGNLLRHIKL,-1.15
16,FRCEVCGACFTQKGNLLRHIKL,-1.59

row,Sequence,log2 fold change of degron read counts
1,FYCPICGRWFTQKGNLLRHIKL,0.264
2,FSCNQCGRNFTQKGNLLRHIKL,-0.266
3,FICDQCGAEFTQKGNLLRHIKL,-1.58
4,FMCNICGAEFTQKGNLLRHIKL,-1.28
5,FYCNQCGACFTQKGNLLRHIKL,-0.359
6,LGCPICGFFCTQKGNLLRHIKL,1.72
7,FDCPICGHHFTQKGNLLRHIKL,-1.26
8,FFCPVCGAIFTQKGNLLRHIKL,0.48
9,FQCPICGRRFTQKGNLLRHIKL,-0.789
10,FRCNQCGRFFTQKGNLLRHIKL,0.398
11,FCCPQCGAMFTQKGNLLRHIKL,0.231
12,FNCNQCGHTFTQKGNLLRHIKL,-1.02
13,FVCEVCGAWFTQKGNLLRHIKL,-0.924
14,FFCNQCGHLFTQKGNLLRHIKL,1.01
15,LGCPICGFRCTQKGNLLRHIKL,1.14
16,FHCNICGALFTQKGNLLRHIKL,-0.177
